Laboratory results taken from PubChem BioAssay AID1508624 (National Center for Advancing Translational Sciences (NCATS), 2021).
In all, about 48,000 compounds went through this assay and about 120 (0.25%) were called active. Another 4% or so got no clear call; they are omitted. The call rests on the fitted dose curve; in most records, active means well fitted activation curve with a large enough effect; inconclusive means small, poorly fitted or top-dose-only effect, or another doubt; inactive means no such curve, though single readings can be large or run the other way. This is one part of the list.

Experiment: Primary qHTS for Identification of Small Molecule Activators of Huntingtin-Antisense Promoter Activity; further: nearly all actives have a fitted effect of over 55% in size
Details: HEK293 HTT-AS promoter firefly luciferase reporter, 24 h; series mostly up to 57.5 µM; activity change, positive = activation: at the top concentration
Outline: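 HEK293 cells carrying firefly luciferase reporters were seeded at 2,500 per well in Opti-MEM and cultured for 24 h. They were then treated with compounds at up to 57.5 uM final for 24 h at 37 degrees C before Dual-Glo luminescence readout.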

Activity change, positive = activation, inactive:
CCN(CC)S(=O)(=O)c1ccc2c(c1)N(CC(=O)Nc1cccc(C(C)=O)c1)C(=O)CO2 -19.3%
O=C(Nc1ccc(Br)cc1)Nc1nc2c(s1)CCCCCC2 26.2%
O=C(COCc1cc(-c2ccc3c(c2)OCO3)on1)Nc1cccc(O)c1 -9.55%
CCC(=O)N1c2ccccc2CC1C(=O)NCCCN1CCN(c2ccc(F)cc2)CC1 (stereo not given) -2.85%
Cc1ncc(CSSCc2cnc(C)c(O)c2CO)c(CO)c1O -8.59%
COc1ccc(Cl)cc1S(=O)(=O)Nc1ccc2c(c1)n(C)c(=O)n2C -12.2%
COc1ccc(NC(=O)C(=O)Nc2ccc3nc4n(c(=O)c3c2)CCCCC4)c(OC)c1 -9.75%
CCOC(=O)c1cnc2cc(Cl)c(OC)cc2c1Nc1ccc(Br)cc1C -5.79%
C#CCOc1c(Br)cc(C2C(C(=O)OC)=C(C)NC3=C2C(=O)c2ccccc23)cc1OCC (stereo not given) -4.4%
COc1ccccc1N1CCN(C(=O)C2CCN(S(=O)(=O)c3cccs3)CC2)CC1 -13.9%
COc1ccccc1C(=O)NC1(C(F)(F)F)C(=O)NC(C)=C1C#N (stereo not given) -15.8%
COc1cc(OC)c(NC(=O)c2nn(C)c3c2COc2ccccc2-3)cc1Cl -1.41%
Cc1ccccc1NC(=O)Cn1nnc(C(=O)NCc2ccco2)c1N -18.9%
Cc1ccc(C)c(Cn2c(=O)n(CCc3ccccc3)c(=O)c3c(C)c(C)sc32)c1 7.32%
COc1ccc(Cn2nc3n(c2=O)-c2ccccc2OC3)cc1 11%
Cc1cccc(C(=O)Nc2nnc(S(=O)(=O)N3CCOCC3)s2)c1 5.34%
Cc1ccc(-c2nnc(Nc3cccc(Br)c3)c3ccccc23)cc1S(=O)(=O)N1CCN(C)CC1 -3.71%
O=C(Nc1ccccc1)c1cc2c(-c3ccccc3)nn(-c3ccccc3)c2s1 -11.4%
O=C(CSc1c2c(nc3ccc(Cl)cc13)CCCC2)N1CCN(c2ccc(Cl)cc2)CC1 -13.9%
CCOc1ccc(OC(=O)c2sc3ncn(Cc4cccc(F)c4)c(=O)c3c2C)cc1 -10.3%
CSc1ccc(CCNS(=O)(=O)c2cc(-c3cc(C)no3)ccc2C)cc1 -26%
Cc1ccc(NC(=O)CC2Sc3ccccc3NC2=O)c(C)c1 (stereo not given) -19%
CC1(C)OC(=O)NC1=O 1.6%
CCOC(=O)c1ccc(-c2ccc(/C=C(\C#N)C(=O)Nc3cccc(C)c3)o2)cc1 4.62%
CN(N=O)C(=O)N[C@H]1C(O)OC(CO)[C@@H](O)[C@H]1O (stereo not given in full) -13.4%
CCN(C(=O)c1cc(S(=O)(=O)N2CCCCC2)c[nH]1)c1ccc(OC)cc1 -26.4%
CCOc1ccc(-n2c(-c3ccc(OC)cc3)cc3c2CC(C)(C)CC3=O)cc1 -29.8%
C=Cc1ccc(CSc2nc(-c3ccc(Cl)cc3)nc3c2Cc2c(CO)cnc(C)c2O3)cc1 -11.9%
COc1ccc(-c2cc(C(F)(F)F)nc(NCc3ccccc3)n2)cc1OC -30.6%
COc1cccc(CN2c3ccccc3-c3nc(SCC(=O)Nc4cccc(C)c4)ncc3S2(=O)=O)c1 -37.3%
CC1CCc2c(sc3nnn(CC(=O)Nc4cccc(C(F)(F)F)c4)c(=O)c23)C1 (stereo not given) -22.3%
CCN1C(C(=O)c2ccccc2)=C(OC(=O)c2ccc(Cl)cc2)c2ccccc2S1(=O)=O -31.7%
CCOc1ccc(Br)cc1C1C(C(=O)Nc2ccccc2OC)=C(C)Nc2nnnn21 (stereo not given) 1.44% [at 11.5 µM, percent change from vehicle, -100% = no light]
Cc1cccc(OC(C)C(=O)N2CCC(c3nc4ccccc4o3)CC2)c1C (stereo not given) -20.9%
CCn1c(=O)c(=O)n(CC)c2cc(N3CCCCC3)c(NC(=O)c3cccc(OC)c3)cc21 -11%
Cc1oc(-c2ccc(C(=O)N(C)Cc3ccccc3)cc2)nc1CN1CCc2ccccc21 -52.1%
CCOC(=O)c1cccc(NC(=O)N2Cc3ccccc3Oc3ncccc32)c1 -26.8%
CC(=O)N1c2ccc(S(=O)(=O)NCCc3cccc(C)c3)cc2CC1C (stereo not given) -25.5%
COc1ccc(N2CCN(CC(O)COc3ccc(C)c(C)c3)CC2)cc1 (stereo not given) 0%
CCOc1cccc(NC(=O)CSc2ncc(-c3ccc(Cl)cc3)[nH]2)c1 -9.3%
COc1ccc(-n2c(=O)c3c4c(sc3n(Cc3ccccc3)c2=O)CCC4)c(OC)c1 -18.7%
Cc1ccc(OCCSc2nc3ccccc3n2CCC(=O)O)cc1C -13.5%
CCOc1ccc(NC(=O)NC(CC)Cn2nnc3ccccc3c2=O)cc1 (stereo not given) -9.34%
COc1ccc(/C=C(\NC(=O)c2ccccc2)C(=O)NC2CCCCC2)cc1 -9.06%
CCN1CCN(C(c2ccc(Cl)cc2)c2c(O)cc(C)n(CCOC)c2=O)CC1 (stereo not given) -15.9%
O=C(CSc1ncc(S(=O)(=O)c2ccc(Br)cc2)c(=O)[nH]1)NCc1ccccc1Cl -6.26%
Cc1nc2ncnn2c(C)c1CCC(=O)NCc1ccc(Cl)cc1 -11.9%
COc1ccc(-c2cc(C(=O)Oc3ccc(Cl)cc3)c3ccccc3n2)cc1 10.3%
CCCCn1cnc2cc(NC(=O)c3cc(OC)c(OC)c(OC)c3)ccc21 -18.5%
Cc1cc(C)cc(N(CC(=O)Nc2ccc(C(F)(F)F)cc2)S(=O)(=O)c2c(C)[nH]c(=O)[nH]c2=O)c1 -19.6%
COc1cc(Cl)c(C)cc1NC(=O)CSCc1nc(-c2ccc(OC)c(OC)c2)no1 -22.2%
Cc1ccc(C)c(Cn2cc(CCC(=O)NC3CCCCC3)c3ccccc32)c1 -3.57%
Cc1cccc(C)c1NC(=O)C1CCN(S(=O)(=O)c2cccc3nsnc23)CC1 -12.7%
Cc1ccc(NC(=O)Cn2ccn(Cc3ccc(Cl)cc3)c(=O)c2=O)cc1C -4.66%
CCOC(=O)C1CCN(C(=O)c2ccc3c(c2)sc2nc(-c4ccc(OCC)cc4)cn23)CC1 -25.8%
COc1ccc(-c2nc(SCC(=O)NC3CCCC3)c(-c3ccccc3)[nH]2)cc1OC -5.04%
CC(=O)c1cccc(-n2c(CCC(=O)O)ccc2-c2ccccc2)c1 5.79%
COc1ccc(OC)c(Nc2cc(C(=O)NCc3ccccc3)c3ccccc3n2)c1 -25.4%
CCOc1ccccc1C(=O)N1CCc2cc(OC)c(OC)cc2C1COc1ccc2c(C)cc(=O)oc2c1 (stereo not given) -4.26%
COc1ccc(CNC(=O)c2cnn(-c3ccc(C)cc3)c2C2CCN(C(=O)OC(C)(C)C)CC2)cc1 -35.7%
Fc1ccc(-c2nnc(CN3CCN(c4ccccn4)CC3)o2)cc1 -1.34%
COc1ccc(C(=O)c2cn(Cc3ccc(F)cc3)c3c(F)cc(F)cc3c2=O)cc1 -20.2%
O=C(C1COc2cc(S(=O)(=O)Nc3ccc(Cl)cc3)ccc2O1)N1CCCC1 (stereo not given) -29.4%
CCc1ccccc1N(C)C(=O)c1cc2c(s1)-c1c(C)cccc1OC2 -7.67%
Cc1ccc(Cn2c(C)c(CNCc3ccccc3F)c(C(=O)O)c2C)cc1 -10%
O=C(Cn1ncc2c3ccccc3n(Cc3ccccc3)c2c1=O)NCc1ccccc1 -13.3%
CC(C)NS(=O)(=O)c1ccc(OCC(=O)N2CCN(c3cccc(Cl)c3)CC2)cc1 -44.4%
COc1cc(C2C(C(=O)Nc3ccccc3)=C(C)Nc3nc(SCC(=O)c4ccc(C)cc4)nn32)ccc1O (stereo not given) 2.24%
CCC[C@H](N[C@@H](C)C(=O)N1[C@H](C(=O)O)C[C@@H]2CCCC[C@@H]21)C(=O)OCC -3.12%
CCc1ccc(S(=O)(=O)c2nnn3c2nc(N2CCN(CC)CC2)c2sccc23)cc1 -1.6%
CCOC(=O)c1ccc(N2C(=O)c3n[nH]c(-c4ccco4)c3C2c2cccc(F)c2)cc1 (stereo not given) -44.2%
Cc1ccc(NC(=O)CSc2nc3ccc(NC(=O)c4cccc(Cl)c4)cc3s2)c(C)c1 -25.6%
COc1ccccc1C(=O)Nc1ccc(-c2nc3cc(C)cc(C)c3o2)cc1 14.8%
CCC(=O)N1CCc2cc(S(=O)(=O)NC(Cc3ccccc3)C(=O)Nc3ccc(Cl)cc3)ccc21 (stereo not given) -2.34%
COc1ccccc1C(=O)N1CCC(c2c[nH]c3ccccc23)(c2c[nH]c3ccccc23)CC1 -33.8%
O=C(CSc1nc(-c2ccccc2)[nH]c1-c1ccc(F)cc1)NC1CCCC1 -26.4%
COc1ccc(CCNC(=O)c2cc3cccc4c3n2CC(C)S4)c(OC)c1OC (stereo not given) -18.3%
CCCC(=O)Nc1c(C(=O)N2CCN(c3ccccc3)CC2)oc2ccccc12 -16.7%
CC(C)c1ccc(S(=O)(=O)Nc2cc3c(cc2NCc2ccccc2)n(C)c(=O)n3C)cc1 -36.7%
CCc1ccccc1NC(=O)C1=CC(c2ccc3c(c2)OCO3)=NS(=O)(=O)N1C -14.1%
COc1ccccc1C(=O)CC1(O)C(=O)N(CC(N)=O)c2ccccc21 (stereo not given) -4.04%
CCOc1ccccc1NC(=O)Cn1c(=O)n(Cc2ccco2)c(=O)c2cccnc21 -17.6%
CC(C)(C)OC(=O)N1CCC(c2c(C(=O)O)cnn2-c2ccc(F)cc2F)CC1 2.93%
O=C(CN1C(=O)COc2ccc(S(=O)(=O)N3CCCCCC3)cc21)N1CCN(c2cccc(Cl)c2)CC1 -28.7%
Cc1cccc(N2CCN(C(=O)CCNS(=O)(=O)c3ccc4c(c3)CCN4C(=O)C3CC3)CC2C)c1 (stereo not given) -37.4%
O=C(NC1CC(=O)N(c2ccccc2)C1)c1cccs1 (stereo not given) -8.85%
c1ccc(CNc2ncnc3[nH]ncc23)cc1 -23.9%
CCOC(=O)N1CCc2c(sc3c2c(=O)n(CCc2ccccc2)c(=O)n3Cc2ccc(C)cc2C)C1 -7.63%
COc1ccc(NS(=O)(=O)c2ccc(N)cc2)nn1 -5.98%
Nc1ccc(C(=O)NCC(=O)O)cc1 -17.1%
COc1ccc(-c2nc(CCNC(=O)Cc3ccc(F)cc3)cs2)cc1 -12.2%
CSc1ccc(CCNC(=O)c2ccc3c(c2)nc2n3CCC(C)C2)cc1 (stereo not given) -0.502%
CCOCCc1nn2c(=O)cc(COC(=O)c3ccccc3NC(=O)c3cccs3)nc2s1 -7.98%
CCc1ccccc1NC(=O)N1CC(CC)Oc2ccc(Cl)cc21 (stereo not given) -26.2%
COc1ccc(N2CCN(C(=O)c3c(C)nn(-c4ccc(F)cc4)c3-n3cccc3)CC2)cc1 -0.0979%
